According to patent publication US20180362604A1 (SHIRE HUMAN GENETIC THERAPIES, published 2018):

T1: BMP-10 (UniProt O95393 317-424)
T1 construct: bought protein; also called bone morphogenic protein-10
T1 sequence (looked up): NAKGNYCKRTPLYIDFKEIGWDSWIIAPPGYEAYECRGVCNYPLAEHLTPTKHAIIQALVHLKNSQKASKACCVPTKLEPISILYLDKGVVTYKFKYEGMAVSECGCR

T2: Myostatin (UniProt O14793 267-375)
T2 construct: bought protein; also called GDF-8; MST
T2 sequence (looked up): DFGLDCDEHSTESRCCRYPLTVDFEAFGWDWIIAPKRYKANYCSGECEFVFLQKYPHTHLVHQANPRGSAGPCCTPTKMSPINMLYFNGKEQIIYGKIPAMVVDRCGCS

T3: Activin A (UniProt P08476 311-426)
T3 construct: bought protein
T3 sequence (looked up): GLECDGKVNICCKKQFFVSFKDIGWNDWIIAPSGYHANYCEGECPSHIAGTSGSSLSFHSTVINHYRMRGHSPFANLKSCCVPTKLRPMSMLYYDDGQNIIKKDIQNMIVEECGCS

T4: BMP-9 (UniProt Q9UK05 320-429)
T4 construct: bought protein; also called bone morphogenic protein-9
T4 sequence (looked up): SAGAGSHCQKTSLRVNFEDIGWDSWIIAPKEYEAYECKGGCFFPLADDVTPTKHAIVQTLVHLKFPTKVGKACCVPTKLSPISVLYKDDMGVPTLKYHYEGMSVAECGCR

B1: FS303K82T-hFcLALA (Fc fusion)
chain: GNCWLRQAKNGRCQVLYKTELSKEECCSTGRLSTSWTEEDVNDNTLFKWMIFNGGAPNCIPCKETCENVDCGPGKKCRMNKTNKPRCVCAPDCSNITWKGPVCGLDGKTYRNECALLKARCKEQPELEVQYQGRCKKTCRDVFCPGSSTCVVDQTNNAYCVTCNRICPEPASSEQYLCGNDGVTYSSACHLRKATCLLGRSIGLAYEGKCIKAKSCEDIQCTGGKKCLWDFKVGRGRCSLCDELCPDSKSDEPVCASDNATYASECAMKEAACSSGVLLEVKHSGSCNSISEDTEEEEEDEDQ[here human IgG1 Fc with changes without letters]
notes: built from its name
B2: FS315K(76,81,82)E-hFcLALA (Fc fusion)
chain: GNCWLRQAKNGRCQVLYKTELSKEECCSTGRLSTSWTEEDVNDNTLFKWMIFNGGAPNCIPCKETCENVDCGPGKECRMNEENKPRCVCAPDCSNITWKGPVCGLDGKTYRNECALLKARCKEQPELEVQYQGRCKKTCRDVFCPGSSTCVVDQTNNAYCVTCNRICPEPASSEQYLCGNDGVTYSSACHLRKATCLLGRSIGLAYEGKCIKAKSCEDIQCTGGKKCLWDFKVGRGRCSLCDELCPDSKSDEPVCASDNATYASECAMKEAACSSGVLLEVKHSGSCNSISEDTEEEEEDEDQDYSFPISSILEW[here human IgG1 Fc with changes without letters]
notes: also called EEE-FS-hFc; FS-EEE-hFc
B3: FS315K(81,82)D-hFcLALA (Fc fusion)
chain: GNCWLRQAKNGRCQVLYKTELSKEECCSTGRLSTSWTEEDVNDNTLFKWMIFNGGAPNCIPCKETCENVDCGPGKKCRMNDDNKPRCVCAPDCSNITWKGPVCGLDGKTYRNECALLKARCKEQPELEVQYQGRCKKTCRDVFCPGSSTCVVDQTNNAYCVTCNRICPEPASSEQYLCGNDGVTYSSACHLRKATCLLGRSIGLAYEGKCIKAKSCEDIQCTGGKKCLWDFKVGRGRCSLCDELCPDSKSDEPVCASDNATYASECAMKEAACSSGVLLEVKHSGSCNSISEDTEEEEEDEDQDYSFPISSILEW[here human IgG1 Fc with changes without letters]
B4: FS315K(76,81,82)D-hFcLALA (Fc fusion)
chain: GNCWLRQAKNGRCQVLYKTELSKEECCSTGRLSTSWTEEDVNDNTLFKWMIFNGGAPNCIPCKETCENVDCGPGKDCRMNDDNKPRCVCAPDCSNITWKGPVCGLDGKTYRNECALLKARCKEQPELEVQYQGRCKKTCRDVFCPGSSTCVVDQTNNAYCVTCNRICPEPASSEQYLCGNDGVTYSSACHLRKATCLLGRSIGLAYEGKCIKAKSCEDIQCTGGKKCLWDFKVGRGRCSLCDELCPDSKSDEPVCASDNATYASECAMKEAACSSGVLLEVKHSGSCNSISEDTEEEEEDEDQDYSFPISSILEW[here human IgG1 Fc with changes without letters]
B5: FS315K(76,81,82)A-hFcLALA (Fc fusion)
chain: GNCWLRQAKNGRCQVLYKTELSKEECCSTGRLSTSWTEEDVNDNTLFKWMIFNGGAPNCIPCKETCENVDCGPGKACRMNAANKPRCVCAPDCSNITWKGPVCGLDGKTYRNECALLKARCKEQPELEVQYQGRCKKTCRDVFCPGSSTCVVDQTNNAYCVTCNRICPEPASSEQYLCGNDGVTYSSACHLRKATCLLGRSIGLAYEGKCIKAKSCEDIQCTGGKKCLWDFKVGRGRCSLCDELCPDSKSDEPVCASDNATYASECAMKEAACSSGVLLEVKHSGSCNSISEDTEEEEEDEDQDYSFPISSILEW[here human IgG1 Fc with changes without letters]
B6: FS315K(81,82)E-hFcLALA (Fc fusion)
chain: GNCWLRQAKNGRCQVLYKTELSKEECCSTGRLSTSWTEEDVNDNTLFKWMIFNGGAPNCIPCKETCENVDCGPGKKCRMNEENKPRCVCAPDCSNITWKGPVCGLDGKTYRNECALLKARCKEQPELEVQYQGRCKKTCRDVFCPGSSTCVVDQTNNAYCVTCNRICPEPASSEQYLCGNDGVTYSSACHLRKATCLLGRSIGLAYEGKCIKAKSCEDIQCTGGKKCLWDFKVGRGRCSLCDELCPDSKSDEPVCASDNATYASECAMKEAACSSGVLLEVKHSGSCNSISEDTEEEEEDEDQDYSFPISSILEW[here human IgG1 Fc with changes without letters]
B7: FS315K(81,82)A-hFcLALA (Fc fusion)
chain: GNCWLRQAKNGRCQVLYKTELSKEECCSTGRLSTSWTEEDVNDNTLFKWMIFNGGAPNCIPCKETCENVDCGPGKKCRMNAANKPRCVCAPDCSNITWKGPVCGLDGKTYRNECALLKARCKEQPELEVQYQGRCKKTCRDVFCPGSSTCVVDQTNNAYCVTCNRICPEPASSEQYLCGNDGVTYSSACHLRKATCLLGRSIGLAYEGKCIKAKSCEDIQCTGGKKCLWDFKVGRGRCSLCDELCPDSKSDEPVCASDNATYASECAMKEAACSSGVLLEVKHSGSCNSISEDTEEEEEDEDQDYSFPISSILEW[here human IgG1 Fc with changes without letters]
B8: FS315K(82,84)E-hFcLALA (Fc fusion)
chain: GNCWLRQAKNGRCQVLYKTELSKEECCSTGRLSTSWTEEDVNDNTLFKWMIFNGGAPNCIPCKETCENVDCGPGKKCRMNKENEPRCVCAPDCSNITWKGPVCGLDGKTYRNECALLKARCKEQPELEVQYQGRCKKTCRDVFCPGSSTCVVDQTNNAYCVTCNRICPEPASSEQYLCGNDGVTYSSACHLRKATCLLGRSIGLAYEGKCIKAKSCEDIQCTGGKKCLWDFKVGRGRCSLCDELCPDSKSDEPVCASDNATYASECAMKEAACSSGVLLEVKHSGSCNSISEDTEEEEEDEDQDYSFPISSILEW[here human IgG1 Fc with changes without letters]
B9: FS315K(76,84)E-hFcLALA (Fc fusion)
chain: GNCWLRQAKNGRCQVLYKTELSKEECCSTGRLSTSWTEEDVNDNTLFKWMIFNGGAPNCIPCKETCENVDCGPGKECRMNKKNEPRCVCAPDCSNITWKGPVCGLDGKTYRNECALLKARCKEQPELEVQYQGRCKKTCRDVFCPGSSTCVVDQTNNAYCVTCNRICPEPASSEQYLCGNDGVTYSSACHLRKATCLLGRSIGLAYEGKCIKAKSCEDIQCTGGKKCLWDFKVGRGRCSLCDELCPDSKSDEPVCASDNATYASECAMKEAACSSGVLLEVKHSGSCNSISEDTEEEEEDEDQDYSFPISSILEW[here human IgG1 Fc with changes without letters]
notes: printed only as 'K(76,84)E' among the FS315-hFc variants
B10: FS315K84E-hFcLALA (Fc fusion)
chain: GNCWLRQAKNGRCQVLYKTELSKEECCSTGRLSTSWTEEDVNDNTLFKWMIFNGGAPNCIPCKETCENVDCGPGKKCRMNKKNEPRCVCAPDCSNITWKGPVCGLDGKTYRNECALLKARCKEQPELEVQYQGRCKKTCRDVFCPGSSTCVVDQTNNAYCVTCNRICPEPASSEQYLCGNDGVTYSSACHLRKATCLLGRSIGLAYEGKCIKAKSCEDIQCTGGKKCLWDFKVGRGRCSLCDELCPDSKSDEPVCASDNATYASECAMKEAACSSGVLLEVKHSGSCNSISEDTEEEEEDEDQDYSFPISSILEW[here human IgG1 Fc with changes without letters]
notes: printed only as 'K84E' among the FS315-hFc variants
B11: FS315WT-hFc (Fc fusion)
chain: GNCWLRQAKNGRCQVLYKTELSKEECCSTGRLSTSWTEEDVNDNTLFKWMIFNGGAPNCIPCKETCENVDCGPGKKCRMNKKNKPRCVCAPDCSNITWKGPVCGLDGKTYRNECALLKARCKEQPELEVQYQGRCKKTCRDVFCPGSSTCVVDQTNNAYCVTCNRICPEPASSEQYLCGNDGVTYSSACHLRKATCLLGRSIGLAYEGKCIKAKSCEDIQCTGGKKCLWDFKVGRGRCSLCDELCPDSKSDEPVCASDNATYASECAMKEAACSSGVLLEVKHSGSCNSISEDTEEEEEDEDQDYSFPISSILEW[here human IgG1 Fc without letters]
notes: wild-type FS315 fused to human Fc; comparator protein; also called FS315wt-hFc (comparator protein)

Biological target: T1, BMP-10
Test: SPR (BIAcore), anti-human Fc capture, BMP-10 as analyte

binding result | Binder
no binding (tested: 25-0.190 nM) | B1
no binding (tested: 25-0.190 nM) | B2
no binding (tested: 25-0.190 nM) | B3
no binding (tested: 25-0.190 nM) | B4
no binding (tested: 25-0.190 nM) | B5
no binding (tested: 25-0.190 nM) | B6
no binding (tested: 25-0.190 nM) | B7

Biological target: T2, Myostatin
Test: SPR

Kd | Binder
9 pM | B8
9.9 pM | B6
9 pM | B9
9.9 pM | B10

Biological target: T3, Activin A
Test: SPR (BIAcore), anti-human Fc capture, activin A as analyte

Kd | Binder
1 to 2 pM | B2
0.47 pM | B3
0.76 pM | B4
1 to 2 pM | B11

Biological target: T4, BMP-9
Test: SPR (BIAcore), anti-human Fc capture, BMP-9 as analyte

binding result | Binder
no binding (tested: 25-0.190 nM) | B1
no binding (tested: 25-0.190 nM) | B2
no binding (tested: 25-0.190 nM) | B3
no binding (tested: 25-0.190 nM) | B4
no binding (tested: 25-0.190 nM) | B5
no binding (tested: 25-0.190 nM) | B7

Biological target: T2, Myostatin
Test: SPR (BIAcore), anti-human Fc capture, myostatin as analyte

Kd | Binder
9.7 pM | B1
6 to 10 pM | B11
9.87 pM | B6

Biological target: T3, Activin A
Test: cell-based or functional assay

Activin A IC50, cell-based assay for SMAD pathway (A204 luciferase reporter) | Binder
700 pM | B2
1100 pM | B8
1100 pM | B4
700 pM | B11
1100 pM and 700 pM | B5
1000 pM | B6

Biological target: T2, Myostatin
Test: cell-based or functional assay

Myostatin IC50, cell-based assay for SMAD pathway (A204 luciferase reporter) | Binder
700 pM | B8
400 pM | B11
600 pM | B6

Several values for one entry are separate records, joined by “and”; a condition that tells them apart may be missing. Equal entries are not always repeated.
